Data from PMC9574860, “Chemical Toolkit for PARK7: Potent, Selective, and High-Throughput” (Journal of Medicinal Chemistry, 2022).
In all, about 7,900 compounds went through this assay and about 400 (5.1%) showed an effect of 50% or more. This is one part of the list.

Molecular target: Parkinson's disease protein 7 (PARK7/DJ1) (human, UniProt Q99497)
Assay: primary screen, percent inhibition; read as competition with a fluorescent probe by fluorescence polarization; higher = more effect of the substance
Details: 100 µM
In short: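 Covalent fragments at 100 μM final were incubated 2 h with 0.2 μM PARK7, then 20 nM probe JYQ-107 added for a further 2 h. Fluorescence polarization read at 480/520 nm; relative FP loss versus reference controls gave remaining enzyme activity.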

Sequence of Parkinson's disease protein 7 (PARK7/DJ1) (Q99497 whole entry, looked up): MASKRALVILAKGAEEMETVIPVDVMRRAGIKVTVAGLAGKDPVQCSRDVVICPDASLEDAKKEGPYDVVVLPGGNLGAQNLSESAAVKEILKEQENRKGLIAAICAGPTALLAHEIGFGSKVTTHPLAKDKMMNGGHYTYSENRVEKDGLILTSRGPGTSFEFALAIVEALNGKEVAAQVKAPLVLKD

Structure (SMILES) | Inhibition % [%]
CCOc1cc(C=C(C#N)C(=O)NC(C)C)cc(Cl)c1O | 5.09
C=CC(=O)NCC1CCN(c2ccccc2Cl)C1 (stereo not drawn) | 7.51
O=C(CN1CCSC1=O)N1CCCC(C(F)(F)F)C1 (stereo not drawn) | 1.18
COc1ccccc1-c1csc(CN2C(=O)CCC2=O)n1 | 11.5
CC(=O)Nc1ccc(OC(=O)N2CCOCC2)cc1 | 6.01
OB(O)c1ccc(OC2CCOCC2)cc1 | 3.03
C=CC(=O)Nc1cnn(C2CCOCC2)c1C | 8.19
Cc1ccc(NC(=O)CN2CCSC2=O)cc1C | 1.36
C=CCn1c(S)nc2ncccc2c1=O | 3.48
N#Cc1cc(N2CCC(Cn3cccn3)CC2)ccn1 | 6.57
CCCOc1cncc(B2OC(C)(C)C(C)(C)O2)c1 | 5.23
Cn1cc(C=CC(=O)N2CCC(C(N)=O)CC2)cn1 | 7.17
Cc1ccc2oc(C#N)nc2c1 | 9.34
CCOc1cc(C)ccc1S(=O)(=O)n1cccn1 | 0.108
N#Cc1cnc2cnccn12 | 19.8
N#Cc1ncn(CCOc2ccccc2)n1 | 0.564
CC1CC(N2CCOC(Cn3cccn3)C2)C(=O)O1 (stereo not drawn) | 3.41
O=C1OCCC1N1CCC(c2c[nH]c3ccccc23)CC1 (stereo not drawn) | 2.06
C#CC(=O)c1ccc(C)cc1 | 9.15
C=CC(=O)Nc1cnc2ccnn2c1 | -1.74
Cc1ccccc1CC(=O)N1CCCCC1C1OCCO1 (stereo not drawn) | 6.69
O=C(CCl)Nc1ccnn1Cc1cccs1 | 20.3
CN(Cc1ccc(F)cc1)C1CCOC1=O (stereo not drawn) | 3.72
CN(C)C(=O)OCCn1ccnc1C#N | 4.49
N#Cc1cccc(N2CC(O)CC2c2ccccc2)n1 (stereo not drawn) | 96.9
CCn1ccnc1SC1CC(C)OC1=O (stereo not drawn) | 7.42

Structure (SMILES) | Inhibition % [%]
O=C(NCCCS(=O)(=O)F)c1cccs1 | 98.9
CC(NC(=O)C(C#N)=Cc1ccco1)c1cccnc1 (stereo not drawn) | 22.8
O=C(O)Cc1ccc(S(=O)(=O)F)cc1 | 89.7
C=CC(=O)NCC(=O)N1CCOCC1 | 4.2
Cn1c(=O)c2[nH]c(SCC3CO3)nc2n(C)c1=O (stereo not drawn) | 9.31
C=CC(=O)NC(c1nc(C2CC2)no1)C(C)C (stereo not drawn) | 11
C=CC(=O)NCc1cc(Br)no1 | 7.52
C=CC(=O)N1CCC(OCC)C(C)(C)C1 (stereo not drawn) | 14.7
CC(C)(C)NC(=O)CN1CCN(C(=O)CCl)CC1 | 13
COc1ccc(C)cc1NC(=O)CNC(=O)CCl | 12.3
Cc1nc(S(=O)(=O)F)sc1C | 34.2
COc1ccc(F)cc1S(=O)(=O)n1ccnc1 | 6.46
C=CC(=O)NC1CCCCNC1=O (stereo not drawn) | 3.54
CCC(C)NC(=O)Cn1cnc(C#N)n1 (stereo not drawn) | 8.24
O=S(=O)(F)[C@@H]1CN(Cc2ccccc2)C[C@H]1c1ccc(Cl)cc1 (racemic) | 6.55
CCOc1cc(C)c(C)cc1S(=O)(=O)n1ccnc1C | 2.71
Cn1c(N)c(C(=O)CCl)c(=O)[nH]c1=O | 45.2
Cc1cc(C)n(S(=O)(=O)N2CCCCC2)n1 | 7.02
Cc1cc(Cl)ccc1NC(=O)CCl | 16.8
C=CC(=O)NC1CCN(c2ccccc2F)C1 (stereo not drawn) | 9.68
CCC1(C)CN(C(=O)c2cccnc2S)CCO1 (stereo not drawn) | 4.06
O=C(CCl)Nc1nc(-c2cccc([N+](=O)[O-])c2)cs1 | 14.8
CC1(C)OB(c2ccc(Br)cc2)OC1(C)C | 5.6
CN1CCN(Cc2ccc(F)cc2B2OC(C)(C)C(C)(C)O2)CC1 | 6.52
Clc1ccccc1OCC1CO1 (stereo not drawn) | 3.31
Cc1cc(C(=O)Nc2cccc(S(=O)(=O)F)c2)c(C(F)(F)F)o1 | 96.8

Structure (SMILES) | Inhibition % [%]
CNc1cccnc1C#N | 10.4
COCc1ccc(C=C(C#N)C(N)=O)cc1 | 4.17
CC(=O)NCc1cccc(N2CCC2=O)c1 | 7.51
CN(C)CCn1c(S)nc2ccccc2c1=O | 82.9
Cc1ccc(S(=O)(=O)C(C#N)=Cc2ccc(C)o2)cc1 | 4.24
Cc1ccc(-c2nnc(SC3CC(C)OC3=O)o2)cc1 (stereo not drawn) | 7.51
C=CC(=O)Nc1cc(Cl)cc2c1OCC2 | 7.15
CC1CC(NC(=O)Nc2ccc(C3CC3)nn2)C(=O)O1 (stereo not drawn) | 8.07
COc1ccc(B2OC(C)(C)C(C)(C)O2)c(C#N)c1 | 7.16
c1ccc2c(c1)CCCC2OCC1CO1 (stereo not drawn) | 4.25
C=CC(=O)N1CCc2c(cccc2OC)C1 | 13.7
Nc1ccc2nc(S)ccc2c1 | 67.6
N#Cc1ncn(CCC(=O)Nc2ccccc2Cl)n1 | 15.8
O=C(Cn1ncc2ccccc21)Nc1cccc(S(=O)(=O)F)c1 | 94.6
FC(F)(F)c1nnc(CCCCl)o1 | 5.87
CN(Cc1cccc(B(O)O)c1)C1CC1.Cl | 3.76
COc1ccccc1C(=O)Nc1cccc(S(=O)(=O)F)c1 | 4.59
N[C@H]1CCN(C(=O)C=Cc2ccc3ccc(Cl)cc3n2)C1 | 11.3
CC1(O)CCC(Nc2ccc(C#N)nc2)CC1 (stereo not drawn) | 1.91
CC(C)(C)OC(=O)N1CCC(B2OC(C)(C)C(C)(C)O2)C1 (stereo not drawn) | 1.29
CN(C(=O)c1ccc2c(=O)[nH]c(S)nc2c1)C1CCC1 | 10.1
C=CC(=O)N[C@@H]1CCO[C@H]1C1CC1 (racemic) | 5.07
N#CC(C(N)=O)=C1CCCCCC1 | 5.19
CC1CC(C)CN(C(=O)Cn2cnc(C#N)n2)C1 (stereo not drawn) | 11.7
CC1(C)C(=O)NC1c1ccco1 (stereo not drawn) | 1.96
C=CCNc1oc(-c2ccc(OC)cc2)nc1C#N | 1.47
